Test results: paper PMC5681660, “Reduced hepatitis B and D viral entry using clinically applied drugs as novel inhibitors of the bile acid transporter NTCP” (Scientific Reports, 2017)
Counter-ions that a name gives are not always drawn.

What was measured:
human NTCP [1] = molecular target: T1, human NTCP (Homo sapiens, UniProt Q14973); assay: Screening taurocholate uptake assay (96-well, [14C]taurocholate, 10 µM drug)
T1 sequence (Q14973 1-349): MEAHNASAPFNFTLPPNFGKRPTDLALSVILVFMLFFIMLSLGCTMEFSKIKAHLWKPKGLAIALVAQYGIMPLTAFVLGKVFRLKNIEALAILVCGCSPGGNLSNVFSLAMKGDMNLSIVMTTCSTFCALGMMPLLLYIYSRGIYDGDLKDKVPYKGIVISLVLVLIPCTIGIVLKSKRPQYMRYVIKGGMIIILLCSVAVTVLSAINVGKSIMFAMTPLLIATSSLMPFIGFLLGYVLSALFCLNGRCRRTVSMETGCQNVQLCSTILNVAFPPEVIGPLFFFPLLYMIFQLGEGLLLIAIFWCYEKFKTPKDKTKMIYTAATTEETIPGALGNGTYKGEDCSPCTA

human NTCP [2] = molecular target: T1, human NTCP; assay: Screening fluorescent competitive Myrcludex B-FITC binding assay (96-well, 10 µM drug)
[3] = 10 min, read-out: %NTCP activity

Question: CCCCCCCN(CC)CCCC(O)c1ccc(NS(C)(=O)=O)cc1.CCCCCCCN(CC)CCCC(O)c1ccc(NS(C)(=O)=O)cc1.O=C(O)/C=C/C(=O)O (stereo not drawn) [Ibutilide fumarate] was tested. Which “%NTCP activity” value (human NTCP [1]; Prestwick library screen, [14C]taurocholate uptake, 10 µM drug) did it give?
Answer: The value was 87.681%.

Question: And the “%NTCP binding” value (human NTCP [2]; Prestwick library screen, Myrcludex B-FITC binding, 10 µM drug)?
Answer: The value was 85.6166%.

Question: What does the source list for [H]/N=C(/N)NS(=O)(=O)c1ccc(N)cc1 [Sulfaguanidine]?
Answer: remaining activity at 10 µM (human NTCP [1]; [3]): 92.8%; remaining activity at 10 µM (human NTCP [2]; 0.5 h, read-out: %NTCP binding): 128%

Question: How did the remaining activity at 10 µM (human NTCP [1]; [3]) turn out when COC(=O)Nc1nc2cc(C(=O)c3ccc(F)cc3)ccc2[nH]1 [Flubendazol] was run?
Answer: Its remaining activity at 10 µM is 71.4%.

Question: What about the remaining activity at 10 µM (human NTCP [2]; 0.5 h, read-out: %NTCP binding) of the same molecule?
Answer: Its remaining activity at 10 µM is 109%.

Question: With CC[C@H]1OC(=O)[C@H](C)[C@@H](O[C@H]2C[C@@](C)(OC)[C@@H](O)[C@H](C)O2)[C@H](C)[C@@H](O[C@@H]2O[C@H](C)C[C@H](N(C)C)[C@H]2O)[C@](C)(O)C[C@@H](C)C(=O)[C@H](C)[C@@H](O)[C@]1(C)O [Erythromycin] as the molecule, how does the remaining activity at 10 µM (human NTCP [1]; [3]) read?
Answer: Its remaining activity at 10 µM is 113%.

Question: What about the remaining activity at 10 µM (human NTCP [2]; 0.5 h, read-out: %NTCP binding) of the same molecule?
Answer: The remaining activity at 10 µM was 86.9%.

Question: With CN(C)CCOC(c1ccc(Cl)cc1)c1ccccn1.O=C(O)/C=C\C(=O)O (stereo not drawn) [Carbinoxamine maleate salt] as the molecule, how does the “%NTCP activity” value (human NTCP [1]; screen, 10 µM drug, [14C]taurocholate uptake) read?
Answer: The value was 105.296%.

Question: And the “%NTCP binding” value (human NTCP [2]; screen, 10 µM drug, Myrcludex B-FITC binding)?
Answer: The value was 89.9614%.

Question: For Cc1ccc(O)c([C@H](CCN(C(C)C)C(C)C)c2ccccc2)c1 [Tolterodine tartrate], which remaining activity at 10 µM (human NTCP [1]; [3]) is on record?
Answer: The remaining activity at 10 µM was 68%.

Question: And the remaining activity at 10 µM (human NTCP [2]; 0.5 h, read-out: %NTCP binding, Prestwick library screen, Myrcludex B-FITC binding, 10 µM drug)?
Answer: The remaining activity at 10 µM was 61.3%.

Question: How did the remaining activity at 10 µM (human NTCP [1]; [3]) turn out when NS(=O)(=O)c1cc2c(cc1Cl)NCNS2(=O)=O [Hydrochlorothiazide] was run?
Answer: Its remaining activity at 10 µM is 138%.

Question: And the remaining activity at 10 µM (human NTCP [2]; 0.5 h, read-out: %NTCP binding)?
Answer: The remaining activity at 10 µM was 113%.

Question: What does the source list for Cc1cc(N)c2ccccc2[n+]1CCCCCCCCCC[n+]1c(C)cc(N)c2ccccc21 [Dequalinium dichloride]?
Answer: remaining activity at 10 µM (human NTCP [1]; [3]): 73%; remaining activity at 10 µM (human NTCP [2]; 0.5 h, read-out: %NTCP binding): 81.2%

Question: How did the remaining activity at 10 µM (human NTCP [1]; [3]) turn out when Nc1ccc(C(=O)O)c(O)c1 [4-aminosalicylic acid] was run?
Answer: The remaining activity at 10 µM was 124%.

Question: And the remaining activity at 10 µM (human NTCP [2]; 0.5 h, read-out: %NTCP binding, screen, 10 µM drug, Myrcludex B-FITC binding)?
Answer: The remaining activity at 10 µM was 82.9%.

Question: What does the source list for N=C(N)N/N=C/c1c(Cl)cccc1Cl [Guanabenz acetate]?
Answer: remaining activity at 10 µM (human NTCP [1]; [3]): 35.5%; remaining activity at 10 µM (human NTCP [2]; 0.5 h, read-out: %NTCP binding): 98.2%

Question: COc1ccc2[nH]c([S+]([O-])Cc3ncc(C)c(OC)c3C)nc2n1 (stereo not drawn) [Tenatoprazole] was tested. Which remaining activity at 10 µM (human NTCP [1]; [3]) did it give?
Answer: Its remaining activity at 10 µM is 108%.

Question: What about the remaining activity at 10 µM (human NTCP [2]; 0.5 h, read-out: %NTCP binding) of the same molecule?
Answer: The remaining activity at 10 µM was 67.2%.

Question: C#C[C@]1(O)CC[C@H]2[C@@H]3CCC4=Cc5oncc5C[C@]4(C)[C@H]3CC[C@@]21C [Danazol] was tested. Which remaining activity at 10 µM (human NTCP [1]; [3]) did it give?
Answer: The remaining activity at 10 µM was 33.6%.

Question: And the remaining activity at 10 µM (human NTCP [2]; 0.5 h, read-out: %NTCP binding)?
Answer: The remaining activity at 10 µM was 83.1%.

Question: With C[C@]12CC[C@@H]3c4ccc(O)cc4C[C@@H](CCCCCCCCC[S+]([O-])CCCC(F)(F)C(F)(F)F)[C@H]3[C@@H]1CC[C@@H]2O (stereo partly drawn) [Fulvestrant] as the molecule, how does the remaining activity at 10 µM (human NTCP [1]; [3]) read?
Answer: The remaining activity at 10 µM was 53.7%.

Question: And the remaining activity at 10 µM (human NTCP [2]; 0.5 h, read-out: %NTCP binding)?
Answer: Its remaining activity at 10 µM is 83.1%.

Question: With COc1ccccc1OCC(O)CO (stereo not drawn) [Guaifenesin] as the molecule, how does the remaining activity at 10 µM (human NTCP [1]; [3]) read?
Answer: Its remaining activity at 10 µM is 97.5%.

Question: What about the remaining activity at 10 µM (human NTCP [2]; 0.5 h, read-out: %NTCP binding) of the same molecule?
Answer: The remaining activity at 10 µM was 71.1%.

Question: How did the remaining activity at 10 µM (human NTCP [1]; [3]) turn out when CCN(CC)C(=O)N1CCN(C)CC1 [Diethylcarbamazine citrate] was run?
Answer: The remaining activity at 10 µM was 26.2%.

Question: What about the remaining activity at 10 µM (human NTCP [2]; 0.5 h, read-out: %NTCP binding) of the same molecule?
Answer: Its remaining activity at 10 µM is 70.4%.

Question: Which results are given for CCc1nc(N)nc(N)c1-c1ccc(Cl)cc1 [Pyrimethamine]?
Answer: remaining activity at 10 µM (human NTCP [1]; [3]): 115%; remaining activity at 10 µM (human NTCP [2]; 0.5 h, read-out: %NTCP binding): 117%

Question: What does the source list for Cl.N=C(N=C(N)N)N1CCOCC1 [Moroxidine hydrochloride]?
Answer: %NTCP activity (human NTCP [1]; Prestwick library screen, 10 µM drug, [14C]taurocholate uptake): 57.3352%; %NTCP binding (human NTCP [2]; Prestwick library screen, 10 µM drug, Myrcludex B-FITC binding): 95.4161%

Question: What does the source list for CC(Cc1ccccc1)NCCC(c1ccccc1)c1ccccc1 (stereo not drawn) [Prenylamine lactate]?
Answer: remaining activity at 10 µM (human NTCP [1]; [3]): 91.1%; remaining activity at 10 µM (human NTCP [2]; 0.5 h, read-out: %NTCP binding, Prestwick library screen, 10 µM drug, Myrcludex B-FITC binding): 31.1%

Question: What does the source list for CSc1nc2cc(Cl)c(Oc3cccc(Cl)c3Cl)cc2[nH]1 [Triclabendazole]?
Answer: remaining activity at 10 µM (human NTCP [1]; [3]): 114%; remaining activity at 10 µM (human NTCP [2]; 0.5 h, read-out: %NTCP binding): 72.7%

Question: Which results are given for Nc1cc(C(Cl)=C(Cl)Cl)c(S(N)(=O)=O)cc1S(N)(=O)=O [Clorsulon]?
Answer: remaining activity at 10 µM (human NTCP [1]; [3]): 105%; remaining activity at 10 µM (human NTCP [2]; 0.5 h, read-out: %NTCP binding): 33.6%

Question: Which results are given for COc1cc([C@@H]2c3cc4c(cc3[C@H](O)[C@H]3COC(=O)[C@H]23)OCO4)cc(OC)c1OC [Podophyllotoxin]?
Answer: remaining activity at 10 µM (human NTCP [1]; [3]): 102%; remaining activity at 10 µM (human NTCP [2]; 0.5 h, read-out: %NTCP binding): 134%

Question: CCn1cc(C(=O)O)c(=O)c2cnc(N3CCNCC3)nc21 [Pipemidic acid] was tested. Which remaining activity at 10 µM (human NTCP [1]; [3]) did it give?
Answer: The remaining activity at 10 µM was 54.3%.

Question: What about the remaining activity at 10 µM (human NTCP [2]; 0.5 h, read-out: %NTCP binding) of the same molecule?
Answer: Its remaining activity at 10 µM is 119%.

Question: With CCOC(=O)[C@@](C)(N)Cc1ccc(O)c(O)c1 [Methyldopate hydrochloride] as the molecule, how does the remaining activity at 10 µM (human NTCP [1]; [3]) read?
Answer: Its remaining activity at 10 µM is 120%.

Question: What about the remaining activity at 10 µM (human NTCP [2]; 0.5 h, read-out: %NTCP binding) of the same molecule?
Answer: The remaining activity at 10 µM was 89.2%.

Question: With Nc1ccc(S(=O)(=O)Nc2ccnn2-c2ccccc2)cc1 [Sulfaphenazole] as the molecule, how does the remaining activity at 10 µM (human NTCP [1]; [3]) read?
Answer: Its remaining activity at 10 µM is 118%.

Question: What about the remaining activity at 10 µM (human NTCP [2]; 0.5 h, read-out: %NTCP binding) of the same molecule?
Answer: Its remaining activity at 10 µM is 113%.

Question: Fc1ccc([C@@H]2CCNC[C@H]2COc2ccc3c(c2)OCO3)cc1 [Paroxetine Hydrochloride] was tested. Which remaining activity at 10 µM (human NTCP [1]; [3]) did it give?
Answer: Its remaining activity at 10 µM is 91%.

Question: And the remaining activity at 10 µM (human NTCP [2]; 0.5 h, read-out: %NTCP binding)?
Answer: The remaining activity at 10 µM was 95.3%.

Question: For O=C(CCCCC(=O)Nc1c(I)cc(I)c(C(=O)O)c1I)Nc1c(I)cc(I)c(C(=O)O)c1I [Iodipamide], which remaining activity at 10 µM (human NTCP [1]; [3]) is on record?
Answer: The remaining activity at 10 µM was 74%.

Question: What about the remaining activity at 10 µM (human NTCP [2]; 0.5 h, read-out: %NTCP binding) of the same molecule?
Answer: Its remaining activity at 10 µM is 83.8%.

Question: Which remaining activity at 10 µM (human NTCP [1]; [3]) does the source give for CCn1cc(C(=O)O)c(=O)c2cc(F)c(N3CCNCC3)nc21 [Enoxacin] here?
Answer: Its remaining activity at 10 µM is 105%.

Question: What about the remaining activity at 10 µM (human NTCP [2]; 0.5 h, read-out: %NTCP binding) of the same molecule?
Answer: The remaining activity at 10 µM was 106%.
